The list shows a part of the results.
Legend:
HSkMC = human skeletal muscle cells; assay: cytotoxicity call (relative viability < 0.9); conditions: 10 µM
HepG2 = assay: cytotoxicity call (relative viability < 0.9); conditions: 10 µM
S. aureus RN4220 = assay: growth inhibition call (relative growth <= 0.2); conditions: 50 µM

Row | Structure (SMILES) | cytotoxicity call (HSkMC) | cytotoxicity call (HepG2) | growth inhibition call (S. aureus RN4220)
1 | C[C@@H]1CN([C@H](C)CO)C(=O)c2cc(NC(=O)Nc3ccc4c(c3)OCO4)ccc2O[C@@H](C)CCCCO[C@@H]1CN(C)Cc1ccncc1 | inactive | inactive | inactive
2 | N=C(N)NCCS | inactive | inactive | inactive
3 | C[C@@H]1CN([C@@H](C)CO)C(=O)c2cc(NC(=O)c3ccccc3)ccc2O[C@@H](C)CCCCO[C@H]1CN(C)S(=O)(=O)c1ccccc1 | inactive | inactive | inactive
4 | COc1ccc(NC(=O)Nc2ccc3c(c2)C(=O)N([C@@H](C)CO)C[C@@H](C)[C@@H](CN(C)S(=O)(=O)c2cccs2)OCCCC[C@H](C)O3)cc1 | inactive | inactive | inactive
5 | COc1ccc(NC(=O)Nc2ccc3c(c2)C(=O)N([C@H](C)CO)C[C@H](C)[C@@H](CN(C)C(=O)Nc2ccc(F)cc2)OCCCC[C@@H](C)O3)cc1 | inactive | inactive | inactive
6 | C[C@@H]1CN([C@@H](C)CO)C(=O)c2cccc(NS(=O)(=O)c3cn(C)cn3)c2O[C@H]1CN(C)S(=O)(=O)c1cccs1 | inactive | inactive | inactive
7 | C[C@@H]1CNC(=O)CCO1 | inactive | inactive | inactive
8 | C[C@@H]1CCCCO[C@H](CN(C)S(=O)(=O)c2ccc(F)cc2)[C@H](C)CN([C@H](C)CO)C(=O)c2cc(NC(=O)Nc3cccc4ccccc34)ccc2O1 | inactive | inactive | inactive
9 | Cc1noc(C)c1S(=O)(=O)Nc1ccc2c(c1)CC(=O)N([C@H](C)CO)C[C@H](C)[C@H](CN(C)Cc1ccc(Oc3ccccc3)cc1)O2 | inactive | inactive | inactive
10 | COc1cccc(S(=O)(=O)N(C)C[C@H]2Oc3ncc(C#CCC(C)C)cc3C(=O)N([C@@H](C)CO)C[C@H]2C)c1 | inactive | inactive | inactive
11 | C[C@H](CO)N1C[C@H](C)[C@H](CN(C)Cc2ccc(C(F)(F)F)cc2)Oc2c(NC(=O)Nc3ccc(C(F)(F)F)cc3)cccc2C1=O | inactive | inactive | inactive
12 | COc1ccc(-c2cc(=O)c3c(O)cc(OC)c(OC)c3o2)c(OC)c1 | inactive | inactive | inactive
13 | C[C@H]1CCCCO[C@H](CN(C)C(=O)Cc2ccccc2)[C@@H](C)CN([C@@H](C)CO)C(=O)c2cc(NS(=O)(=O)c3ccc(Cl)cc3)ccc2O1 | active | inactive | inactive
14 | C[C@H](NC(=O)C[C@@H]1C=C[C@H](NC(=O)CN2CCOCC2)[C@H](CO)O1)c1ccccc1 | inactive | inactive | inactive
15 | COC(=O)[C@@H]1CC(=O)O[C@H](C)C/C=C/C=C/[C@H](O)[C@H](C)C[C@H](CC=O)[C@H](O[C@H]2O[C@H](C)[C@@H](O[C@H]3C[C@@](C)(O)[C@@H](OC(=O)CC(C)C)[C@H](C)O3)[C@H](N(C)C)[C@H]2O)[C@H]1OC | inactive | inactive | active
16 | C[C@@H]1CN([C@@H](C)CO)C(=O)c2cc(NS(=O)(=O)c3ccc(F)cc3)ccc2O[C@H]1CN(C)S(=O)(=O)c1cn(C)cn1 | inactive | inactive | inactive
17 | CC(C)NC(=O)Nc1ccc2c(c1)CC(=O)N([C@@H](C)CO)C[C@@H](C)[C@H](CN(C)C(=O)NC1CCCCC1)O2 | inactive | inactive | inactive
18 | C[C@H]1CN([C@@H](C)CO)C(=O)Cc2cc(NC(=O)C3CC3)ccc2O[C@@H]1CN(C)S(=O)(=O)c1ccc(F)cc1 | inactive | inactive | inactive
19 | CCOC(=O)c1c(C)c(Cl)c(O)c(Cl)c1O | inactive | inactive | inactive
20 | COc1ccc(NC(=O)Nc2ccc3c(c2)C(=O)N([C@@H](C)CO)C[C@@H](C)[C@@H](CN(C)Cc2ccc(C(=O)O)cc2)OCCCC[C@H](C)O3)cc1 | inactive | inactive | inactive
21 | NC(=S)c1cnccn1 | inactive | inactive | inactive
22 | Nc1nc2nn[nH]c2c(=O)[nH]1 | inactive | inactive | inactive
23 | COc1ccc(S(=O)(=O)N(C)C[C@@H]2Oc3ccc(NS(=O)(=O)c4cn(C)cn4)cc3C(=O)N([C@H](C)CO)C[C@H]2C)cc1 | inactive | inactive | inactive
24 | COc1oc(C(=O)NC2CCCCC2)c(-c2ccc(Cl)cc2)c1S(=O)(=O)c1ccccc1NC(C)=O | inactive | inactive | inactive
25 | O=C(CCCCCNC(=O)OCCCCO[C@H]1C[C@@H](c2ccc3c(c2)OCO3)C=C(C(=O)N2CCOCC2)O1)NO | inactive | inactive | inactive
26 | C[C@@H]1CCCCO[C@@H](CN(C)C(=O)C2CCCCC2)[C@H](C)CN([C@@H](C)CO)C(=O)c2cc(NS(=O)(=O)c3ccccc3)ccc2O1 | inactive | active | inactive
27 | Cc1noc(C)c1NC(=O)Nc1ccc2c(c1)C(=O)N([C@@H](C)CO)C[C@H](C)[C@@H](CN(C)S(=O)(=O)c1ccccc1)OCCCC[C@H](C)O2 | inactive | inactive | inactive
28 | CN(C)C(=O)C[C@@H]1CC[C@H](NC(=O)C2CC2)[C@@H](CO)O1 | inactive | inactive | inactive

Source: the antibiotic and cytotoxicity screens of Wong et al. (2023)
